The supplement of paper PMC11417369
This is one part of the list.

Each sequence was assayed on PfHDP1 homeodomain (GST-tagged) (assay: gcPBM binding intensity (ln(normalized median fluorescence intensity)); higher = stronger DNA binding).
Procedure, shortened: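 An Agilent 4 × 180k array carrying primer-extended double-stranded 36-bp intergenic genomic probes and negative controls received GST-tagged P. falciparum DNA-binding domains expressed in E. coli, about 25 μg on average, for 1 h. The binding buffer contained 1× PBS, 1% milk, 0.2 mg/ml BSA, 0.5% salmon testes DNA and 0.03% Triton X-100. Binding intensity is the top Masliner-normalised natural-log median intensity across replicate spots of either probe orientation, read after Alexa488 anti-GST antibody staining and a 488 nm scan.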

Sequence	gcPBM binding intensity (ln)
AAAGAAAAAAAAAAAAAAAAAAAAAAAATTATACAT [CACACA_negctrl_site7]	5.89
ATGTATCCAATAGGAGTGCATAATTCTATTAACACC	8.25
ACAAAATATACAAAATGTACAAAATATACAAAATGT [XGTACX_site6467]	6.22
TTATATCATTTTCCTGCACACATAAATTTATATAAT [CACACA_site8257]	8.33
TATACAGATAAATACACACACACATATATATATATA [CACACA_site4845]	9.22
TTATTCTAAAAGTGTTTGCACTTTTATAATCATATA [GTGCAC_site9929]	7.41
CATATGTATTTATTCACACATATATATATATATATA [CACACA_site4207]	9.45
AATAATAATTTGAATACACACAATAATATATATATA [CACACA_site2059]	8.46
ATACAAAAAATCACATGTACATATTCTTAAATGGTA [XGTACX_site8502]	6.26
TACCTTTCTTATTATTGAAAAGGAATATATAAATAG [CACACA_negctrl_site272]	6.17
ATATATATTAATATTTGTACATAAAATTATTTCAAT [XGTACX_site5364]	6.65
AGTGTAATTTTCCACTGTACTTTTCTTGTATATAAT [XGTACX_site4201]	6.29
AATACATTTATGAGCTGTACACATTTATTTGAGCTA [XGTACX_site7695]	6.27
TAAAAGTATTCCTTTTGTACATATAATGAAAACAAT [XGTACX_site2069]	6.47
CTATATTTTTAAAAATGTACTTTATAATAAAATACT [XGTACX_site3593]	6.44
ATACAATAATATAAATGTACAAATTATATCTTAATT [XGTACX_site6004]	6.45
CTGTTTTTACTAAGTTGTACAAATGATGATACCCTA [XGTACX_site630]	6.87
TAAATTTAAAATGACACACACTAAAATTATTTAAGT [CACACA_site4816]	6.51
AAATATTCATAGTATACACACATTTATTTATAACCA [CACACA_site6502]	6.58
ACCTTTAATATATACACACACATAAAAAAAATATAT [CACACA_site1843]	8.01
GTATGTATGTATGTATGTACTTATTTATTTATTTAT [XGTACX_site1921]	7.69
TAAAATTTACGGTCTTGTTGCGCAACCAACATTGTC [CACACA_negctrl_site1175]	7.25
TAATAATAGTAAATATGTACATATATATATATATAG [XGTACX_site4602]	6.76
GTTTTTTTTTTTTTGGTGCGTCATTTTCAAAAGAAG [GTGCAC_site9745]	7.06
ATTAATAAATAAATGACACACACACCCACAAAAAAA [CACACA_site8839]	7.07
